Source: PubChem BioAssay AID686971 (National Center for Advancing Translational Sciences (NCATS), 2013)
Hit rate of the full screen: of about 360,000 compounds, about 7,500 (2.1%) were called active. The shares of active, inactive and inconclusive entries below differ from those in the screen. The call rests on the fitted dose curve; in most records, active means well fitted cell-killing curve with a large enough effect; inconclusive means small, poorly fitted or top-dose-only effect, or effect the other way, or another doubt; inactive means no such curve, though single readings can be large or run the other way. No potency is given beside an inconclusive call; the fits are too rough.

Assay: qHTS for induction of synthetic lethality in tumor cells producing 2HG: qHTS for the HT-1080-IDH1KD cell line;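 on activity, negative = toxicity: 0% = DMSO wells and -100% = cell-free medium wells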
Settings: HT-1080 IDH1 knockdown viability, ATP luminescence, 48 h; activity, negative = toxicity: at 46.1 µM (top of the series) unless noted
Summary of the method: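 After a 2 h attachment period, IDH1KD HT-1080 cells took pin-transferred compound for 48 h at 37 °C; ATP-based luminescence after 10 min room-temperature reagent incubation reported viability.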
Potency means the concentration at half of the fitted maximal effect; tags describe the fitted curve by direction and shape.

| SMILES | activity, negative = toxicity | Potency |
| --- | --- | --- |
| Cc1ccc(S(=O)(=O)N2CCC(C(=O)NC3CCCC3)CC2)cc1Cl | inactive: -0.237% |  |
| Cc1cccc(-c2nc(CN3CCCC(C(=O)NC4CCCCC4)C3)c(C)o2)c1 (stereo unspecified) |  | inconclusive [cytotoxic, single point] |
| O=C(OCC(=O)N1CCN(C(=O)c2ccco2)CC1)c1ccccc1OCc1ccc(Cl)cc1 | inactive: 3.59% |  |
| CC(O)(c1ccc(F)c(F)c1)c1nc(-c2ccc(F)c(Cl)c2)cs1 (stereo unspecified) |  | inconclusive [cytotoxic, single point] |
| CCOc1ncccc1C(=O)OCC(=O)NCc1cccs1 | inactive: -1.29% |  |
| O=C(NNc1ccc(Cl)cc1)C1CCC1 |  | inconclusive [cytotoxic, partial curve] |
| COCC(Cc1ccccc1)NC(=O)Cn1cc(C)c(=O)[nH]c1=O (stereo unspecified) | inactive: 7.3% |  |
| Cc1cc(Cl)ccc1C(O)c1ncc(-c2cccc3ccccc23)[nH]1 (stereo unspecified) |  | inconclusive [cytotoxic, single point] |
| COc1ccccc1NC(=O)c1cccs1 | inactive: 8.79% |  |
| CCOc1ccc(NS(=O)(=O)c2cc(NC(=O)c3cccc(C)c3)ccc2Cl)cc1 |  | active: 25.9 µM |
| O=C(OCC(=O)c1ccc[nH]1)c1ccc(F)c(S(=O)(=O)N2CCOCC2)c1 | inactive: -1.54% |  |
| Cc1ccc(C(c2nc3ccccc3[nH]2)n2c(-c3ccccc3)nc3ccccc32)cc1 (stereo unspecified) |  | inconclusive [cytotoxic, single point] |
| CCCCOc1ccc(NC2=NC3(CCCCC3)N=C(N)N2)cc1 |  | inconclusive [cytotoxic, single point] |
| CCCNC(=O)CN1C(=O)NC2(CCCc3cc(OC)ccc32)C1=O (stereo unspecified) | inactive: 5.47% |  |
| Cc1ccc2oc(C(=O)Nc3cc(C)on3)c(C)c2c1 | inactive: 9.95% |  |
| Cc1ccc(S(=O)(=O)N2CCN(C(=O)Cc3ccc(S(=O)(=O)N4CCOCC4)s3)CC2)cc1 | inactive: -3.57% |  |
| O=C(CSc1nc(-c2ccco2)cc(C(F)(F)F)n1)Nc1ccc2c(c1)OCO2 |  | inconclusive [cytotoxic, partial curve] |
| CCc1ccc(/C=C2\SC(=S)N(CCCC(=O)NCCCN3CCOCC3)C2=O)cc1 |  | inconclusive [cytotoxic, single point] |
| CCCCc1c(C)nc2ccc(Br)cc2c1SC(N)N | inactive: 10.7% |  |
| CCC(C)c1ccccc1NC(=O)CN(C)CCOc1ccc(Cl)cc1 (stereo unspecified) |  | inconclusive [cytotoxic, single point] |
| Cc1cc(NC(=O)c2sc(Nc3ccc(F)c(Cl)c3)nc2N)no1 |  | inconclusive [cytotoxic, single point] |
| COc1cccc(NS(=O)(=O)c2c(C)cc(C)cc2C)c1 |  | inconclusive [cytotoxic, single point] |
| Cc1ccc2nnc(Cl)n2n1 | inactive: 9.09% |  |
| CC(C)COc1ccc(Cc2cnc(N)nc2N)cc1 | inactive: -21.9% |  |
| CC(C)C(=O)N1CCN(c2ccc(NC(=O)c3ccc([N+](=O)[O-])o3)cc2)CC1 |  | active: 7.31 µM |
| Cc1ccc([N+](=O)[O-])cc1S(=O)(=O)Nc1cccc(-c2ccc(N3CCCC3)nn2)c1 |  | inconclusive [cytotoxic, single point] |

| SMILES | activity, negative = toxicity | Potency |
| --- | --- | --- |
| Cc1cccc2sc(N(CCCN(C)C)C(=O)CCS(=O)(=O)c3ccccc3)nc12 |  | inconclusive [cytotoxic, single point] |
| O=C(Nc1ccc(S(=O)(=O)N2CCOCC2)cc1)c1ccc([N+](=O)[O-])o1 |  | active: 8.2 µM |
| COc1ccc(-n2cc(C#N)c(=O)n(Cc3ccc(F)cc3)c2=O)cc1 |  | inconclusive [cytotoxic, partial curve] |
| Cc1ccc(C(=O)Nc2ccc(N3CCOCC3)nc2N2CCOCC2)cc1 | inactive: 1.2% |  |
| COC(=O)c1cc(Sc2c(Cl)cccc2Cl)ccn1 | inconclusive: -30.7% [cytotoxic] |  |
| CC1=C/C(=N\OS(=O)(=O)c2ccccc2)C(C(C)C)=CC1=O |  | inconclusive [cytotoxic, single point] |
| C=CCOc1ccc(C(=O)/C=C2/C(=O)Nc3ccccc32)cc1 |  | inconclusive [cytotoxic, single point] |
| CCOc1cc(/C=N/O)cc(Br)c1OCc1ccc(Cl)cc1 |  | inconclusive [cytotoxic, single point] |
| Cc1noc(C)c1CCC(=O)Nc1c(C(C)C)cccc1C(C)C | inactive: -1.05% |  |
| COc1ccc(C2(O)CC3CCC(C2)N3c2nc(C)cc(C)c2C#N)cc1 (stereo unspecified) |  | inconclusive [cytotoxic, single point] |
| COc1ccc(C2=Nc3ccccc3N(C(=O)c3ccc4ncccc4c3)C2C(=O)NC(C)(C)C)cc1 (stereo unspecified) |  | inconclusive [cytotoxic, single point] |
| CCOc1cc(/C=C2\C(=O)N(CCC#N)N=C2C)ccc1OCC(N)=O | inactive: -15.6% |  |
| O=C(Nc1nc(-c2ccc(Cl)cc2Cl)cs1)c1ccc(OCC2CCCO2)cc1 (stereo unspecified) |  | inconclusive [cytotoxic, partial curve] |
| Cc1nc2c(OCc3ccc(Cl)cc3)cccn2c1N(C)Cc1cccs1 |  | active: 16.4 µM |
| CC1=C(C(=O)Nc2cc(C)ccc2C)C(c2cccs2)NC(=S)N1 (stereo unspecified) | inactive: 7.97% |  |
| Cc1cnc(C(=O)N2CCCC(N3CCN(c4ccccc4C)CC3)C2)cn1 (stereo unspecified) | inactive: 17.4% |  |
| CN(Cc1ccccc1)C(=O)CC(=O)N(C)Cc1ccccc1 |  | inconclusive [rising, partial curve] |
| Cc1cccc(CNC(=O)c2sc(=O)n(Cc3c(C)cccc3C)c2C)c1 |  | inconclusive [cytotoxic, single point] |
| COC(=O)c1ccccc1C(=O)c1cccc2ccccc12 |  | inconclusive [cytotoxic, single point] |
| O=C(NCCN1C(=O)S/C(=C\c2ccc(OC(F)F)cc2)C1=O)c1cnccn1 |  | inconclusive [cytotoxic, full curve] |
| O=C(/C=C/c1ccccc1)NCc1ccco1 | inactive: 13.8% |  |
| O=C(N/N=C/c1ccc(O)cc1)c1cc(-c2ccc3c(c2)OCO3)n[nH]1 |  | inconclusive [cytotoxic, full curve] |
| O=C(CSc1nncc(=O)[nH]1)NCc1ccccc1 |  | inconclusive [rising, partial curve] |
| OCCN(Cc1ccccn1)Cc1ccccn1 | inactive: -10.3% |  |
| CC[C@@H](C)[C@H](CNC)NC[C@@H](Cc1cccc2ccccc12)NCCc1cccc(C(F)(F)F)c1 |  | inconclusive [cytotoxic, single point] |
| Cc1ccc(C(=O)CN2/C(=C(\O)c3ccccc3)C(=O)c3ccccc3S2(=O)=O)c(C)c1 |  | inconclusive [cytotoxic, partial curve] |

| SMILES | activity, negative = toxicity | Potency |
| --- | --- | --- |
| Cc1cc(C)nc(NC(=O)c2c(F)c(F)c(F)c(C(=O)Nc3cc(C)cc(C)n3)c2F)c1 | inactive: -20.8% |  |
| Cc1ccc(/C=C\c2nccc3c2[nH]c2ccccc23)cc1 |  | inconclusive [cytotoxic, single point] |
| Cc1ccc(CC(=O)NCc2ccc(Cl)cc2)cc1 |  | active: 9.2 µM |
| O=[N+]([O-])c1cccc(OCCCN2CCC(Cc3ccccc3)CC2)c1 |  | inconclusive [cytotoxic, single point] |
| C=CCNC(=S)N1CCN(c2ncc(C(F)(F)F)cc2Cl)CC1 | inactive: -10.6% |  |
| O=C1S/C(=C\c2ccc(N3CCOCC3)o2)C(=O)N1Cc1ccc(F)cc1 |  | active: 3.16 µM |
| COc1cc(NC(=O)C2CCN(c3cnccn3)CC2)cc(OC)c1OC | inactive: 1.98% |  |
| CC(=O)N1CCN(C(=O)c2[nH]c(C(F)(F)F)nc2-c2ccccc2)CC1 | inactive: 19.6% |  |
| O=C(N/N=C/c1sc(N2CCOCC2)nc1-c1ccccc1)c1cccc(S(=O)(=O)N2CCCC2)c1 | inconclusive: -35.4% [cytotoxic] |  |
| COc1ccc(NC(=O)c2ccc(NCCCN3CCOCC3)c([N+](=O)[O-])c2)cc1 | inactive: 0.224% |  |
| O=C(Nc1nc(-c2cccs2)cs1)C1=COCCO1 | inactive: -5.42% |  |
| CCOC(=O)COc1c(C=O)cc(Br)cc1OC |  | inconclusive [cytotoxic, single point] |
| COc1ccc(-c2ccc(C(=O)N3CCOCC3)c3occc23)c(C)c1 |  | inconclusive [cytotoxic, single point] |
| COc1ccc(C(Cl)=C(C=O)c2ccc(OC)c(OC)c2)cc1OC | inactive: -18.9% |  |
| COc1ccc(Cl)cc1-c1cc(C(=O)NCc2cc(C(F)(F)F)cc(C(F)(F)F)c2)[nH]n1 |  | inconclusive [cytotoxic, single point] |
| Cc1ccc(C(NC(=O)C(C)C)c2cc([N+](=O)[O-])c3cccnc3c2O)cc1 (stereo unspecified) |  | active: 14.6 µM |
| Cn1c(=O)c2c(nc(NCCOc3ccc(C(C)(C)C)cc3)n2C)n(C)c1=O | inactive: -5.55% |  |
| COc1ccc(N2CC(C(=O)N/N=C/c3cc([N+](=O)[O-])ccc3O)CC2=O)cc1 (stereo unspecified) |  | inconclusive [cytotoxic, partial curve, poor fit] |
| CCCCCOc1ccc(C(=O)CCC(=O)Nc2ccc(NC(C)=O)cc2)cc1 |  | inconclusive [rising, single point] |
| NC(=O)c1ccc(Oc2cccc3cccnc23)c([N+](=O)[O-])c1 | inactive: -3.89% |  |
| CCN(CC(=O)NCc1cccs1)C(=O)COc1ccc(C(N)=O)cc1 | inactive: 1.4% |  |
| COc1ccc(-c2cc(-c3ccc(C)cc3)n[nH]2)c(O)c1 |  | inconclusive [cytotoxic, single point] |
| CCc1ccccc1NC(=S)N1CCNC(=O)C1CC(=O)OC (stereo unspecified) |  | inconclusive [rising, single point] |
| COc1cccc(-c2cc3nc4c(c(NCC(C)(C)CN(C)C)n3n2)CCCC4)c1 |  | inconclusive [cytotoxic, single point] |
